Results from PMC12820563, “FoxP3 forms a head-to-head dimer in vivo and stabilizes its multimerization on adjacent microsatellites”.
Some of the results follow.

The sequences below were run against T1, MBP-FoxP1dN (Mus musculus, UniProt P58462 326-579) (assay: PD-seq (MBP pull-down with sequencing); 20 mM Tris-HCl pH 7.5, 100 mM NaCl, 1.5 mM MgCl2, 0.4 uM protein, 0.1 uM dsDNA library, 30 min, room temperature, amylose pull-down; high values mean tight binding). Details: protein: recombinant; tags: His6-MBP; chain copies: 2; dsDNA, one strand shown.
T1 sequence: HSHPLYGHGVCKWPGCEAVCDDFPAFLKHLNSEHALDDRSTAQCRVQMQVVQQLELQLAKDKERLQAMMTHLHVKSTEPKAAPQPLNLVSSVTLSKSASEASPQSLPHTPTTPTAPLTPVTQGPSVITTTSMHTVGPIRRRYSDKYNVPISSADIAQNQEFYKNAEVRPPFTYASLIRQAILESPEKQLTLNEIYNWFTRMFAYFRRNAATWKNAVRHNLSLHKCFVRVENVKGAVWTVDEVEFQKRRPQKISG
Method in brief: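 E. coli-expressed mouse FoxP3 or FoxP1 fragment, N-terminus removed and tagged with His6-MBP, was used at 0.4 µM against 0.1 µM of a Klenow-filled degenerate double-stranded DNA library. After 30 min at room temperature in Tris pH 7.5 buffer with NaCl and MgCl2, complexes were pulled down on amylose resin and washed three times. Binding is pull-down over input reads-per-million enrichment from pooled replicates of the proteinase K-released, PCR-barcoded, Illumina-sequenced DNA.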

Row | Sequence | binding signal
1 | GATGATTGTTCTCCCAGCTGATGAATTGTGAGATTCGAGTAAACAAATTTTCCTAATCTTTCTGTTCAAGCGCCATCTAC | 1.04 RPM ratio (pull-down/input)
2 | GATGATTGTTCTCCCAGCTGATGAATTAAAGCAGTCGAGTAAACAAATTTTCCTAATCTTTCTGTTCAAGCGCCATCTAC | 0.924 RPM ratio (pull-down/input)
3 | GATGATTGTTCTCCCAGCTGATGAATTCTGTACGTCGAGTAAACAAATTTTCCTAATCTTTCTGTTCAAGCGCCATCTAC | 0.92 RPM ratio (pull-down/input)
4 | GATGATTGTTCTCCCAGCTGATGAATTGCGCAAATCGAGTAAACAAATTTTCCTAATCTTTCTGTTCAAGCGCCATCTAC | 1.26 RPM ratio (pull-down/input)
5 | GATGATTGTTCTCCCAGCTGATGAATTCAGATCATCGAGTAAACAAATTTTCCTAATCTTTCTGTTCAAGCGCCATCTAC | 0.939 RPM ratio (pull-down/input)
6 | GATGATTGTTCTCCCAGCTGATGAATTCCTTCCGTCGAGTAAACAAATTTTCCTAATCTTTCTGTTCAAGCGCCATCTAC | 0.839 RPM ratio (pull-down/input)
7 | GATGATTGTTCTCCCAGCTGATGAATTTGAGCGCTCGAGTAAACAAATTTTCCTAATCTTTCTGTTCAAGCGCCATCTAC | 0.83 RPM ratio (pull-down/input)
8 | GATGATTGTTCTCCCAGCTGATGAATTCACGTGGTCGAGTAAACAAATTTTCCTAATCTTTCTGTTCAAGCGCCATCTAC | 0.933 RPM ratio (pull-down/input)
9 | GATGATTGTTCTCCCAGCTGATGAATTTTGAAGTTCGAGTAAACAAATTTTCCTAATCTTTCTGTTCAAGCGCCATCTAC | 0.901 RPM ratio (pull-down/input)
10 | GATGATTGTTCTCCCAGCTGATGAATTAGCCTGATCGAGTAAACAAATTTTCCTAATCTTTCTGTTCAAGCGCCATCTAC | 0.84 RPM ratio (pull-down/input)
11 | GATGATTGTTCTCCCAGCTGATGAATTAAAGTAATCGAGTAAACAAATTTTCCTAATCTTTCTGTTCAAGCGCCATCTAC | 1.64 RPM ratio (pull-down/input)
12 | GATGATTGTTCTCCCAGCTGATGAATTCATAATTTCGAGTAAACAAATTTTCCTAATCTTTCTGTTCAAGCGCCATCTAC | 1.06 RPM ratio (pull-down/input)
13 | GATGATTGTTCTCCCAGCTGATGAATTATTGTACTCGAGTAAACAAATTTTCCTAATCTTTCTGTTCAAGCGCCATCTAC | 1.24 RPM ratio (pull-down/input)
14 | GATGATTGTTCTCCCAGCTGATGAATTATTTTCCTCGAGTAAACAAATTTTCCTAATCTTTCTGTTCAAGCGCCATCTAC | 1.34 RPM ratio (pull-down/input)
15 | GATGATTGTTCTCCCAGCTGATGAATTCAGTCCTTCGAGTAAACAAATTTTCCTAATCTTTCTGTTCAAGCGCCATCTAC | 0.831 RPM ratio (pull-down/input)
16 | GATGATTGTTCTCCCAGCTGATGAATTGGGTGCATCGAGTAAACAAATTTTCCTAATCTTTCTGTTCAAGCGCCATCTAC | 1.22 RPM ratio (pull-down/input)
17 | GATGATTGTTCTCCCAGCTGATGAATTCTCGACGTCGAGTAAACAAATTTTCCTAATCTTTCTGTTCAAGCGCCATCTAC | 0.871 RPM ratio (pull-down/input)
18 | GATGATTGTTCTCCCAGCTGATGAATTCGCTCTGTCGAGTAAACAAATTTTCCTAATCTTTCTGTTCAAGCGCCATCTAC | 0.845 RPM ratio (pull-down/input)
19 | GATGATTGTTCTCCCAGCTGATGAATTTCCTAGCTCGAGTAAACAAATTTTCCTAATCTTTCTGTTCAAGCGCCATCTAC | 0.861 RPM ratio (pull-down/input)
20 | GATGATTGTTCTCCCAGCTGATGAATTGTTTGTTTCGAGTAAACAAATTTTCCTAATCTTTCTGTTCAAGCGCCATCTAC | 2.72 RPM ratio (pull-down/input)

Row | Sequence | binding signal
21 | GATGATTGTTCTCCCAGCTGATGAATTGTCCAACTCGAGTAAACAAATTTTCCTAATCTTTCTGTTCAAGCGCCATCTAC | 1.02 RPM ratio (pull-down/input)
22 | GATGATTGTTCTCCCAGCTGATGAATTGATCGTCTCGAGTAAACAAATTTTCCTAATCTTTCTGTTCAAGCGCCATCTAC | 0.89 RPM ratio (pull-down/input)
23 | GATGATTGTTCTCCCAGCTGATGAATTCCTTTGTTCGAGTAAACAAATTTTCCTAATCTTTCTGTTCAAGCGCCATCTAC | 0.871 RPM ratio (pull-down/input)
24 | GATGATTGTTCTCCCAGCTGATGAATTCGTGTTGTCGAGTAAACAAATTTTCCTAATCTTTCTGTTCAAGCGCCATCTAC | 2.52 RPM ratio (pull-down/input)
25 | GATGATTGTTCTCCCAGCTGATGAATTACACCGGTCGAGTAAACAAATTTTCCTAATCTTTCTGTTCAAGCGCCATCTAC | 1.05 RPM ratio (pull-down/input)
26 | GATGATTGTTCTCCCAGCTGATGAATTCGGAAGCTCGAGTAAACAAATTTTCCTAATCTTTCTGTTCAAGCGCCATCTAC | 0.761 RPM ratio (pull-down/input)
27 | GATGATTGTTCTCCCAGCTGATGAATTCGATACATCGAGTAAACAAATTTTCCTAATCTTTCTGTTCAAGCGCCATCTAC | 1.09 RPM ratio (pull-down/input)
28 | GATGATTGTTCTCCCAGCTGATGAATTTTATTACTCGAGTAAACAAATTTTCCTAATCTTTCTGTTCAAGCGCCATCTAC | 1.01 RPM ratio (pull-down/input)
29 | GATGATTGTTCTCCCAGCTGATGAATTGACGTCATCGAGTAAACAAATTTTCCTAATCTTTCTGTTCAAGCGCCATCTAC | 1.29 RPM ratio (pull-down/input)
30 | GATGATTGTTCTCCCAGCTGATGAATTGCACCCCTCGAGTAAACAAATTTTCCTAATCTTTCTGTTCAAGCGCCATCTAC | 1.08 RPM ratio (pull-down/input)
31 | GATGATTGTTCTCCCAGCTGATGAATTTCAAGAGTCGAGTAAACAAATTTTCCTAATCTTTCTGTTCAAGCGCCATCTAC | 0.775 RPM ratio (pull-down/input)
32 | GATGATTGTTCTCCCAGCTGATGAATTGCGGGACTCGAGTAAACAAATTTTCCTAATCTTTCTGTTCAAGCGCCATCTAC | 0.969 RPM ratio (pull-down/input)
33 | GATGATTGTTCTCCCAGCTGATGAATTTTGGGATTCGAGTAAACAAATTTTCCTAATCTTTCTGTTCAAGCGCCATCTAC | 0.876 RPM ratio (pull-down/input)
34 | GATGATTGTTCTCCCAGCTGATGAATTTATCTCTTCGAGTAAACAAATTTTCCTAATCTTTCTGTTCAAGCGCCATCTAC | 1.14 RPM ratio (pull-down/input)
35 | GATGATTGTTCTCCCAGCTGATGAATTAACAGAGTCGAGTAAACAAATTTTCCTAATCTTTCTGTTCAAGCGCCATCTAC | 0.832 RPM ratio (pull-down/input)
36 | GATGATTGTTCTCCCAGCTGATGAATTCGTATAATCGAGTAAACAAATTTTCCTAATCTTTCTGTTCAAGCGCCATCTAC | 1.07 RPM ratio (pull-down/input)
37 | GATGATTGTTCTCCCAGCTGATGAATTTATCATATCGAGTAAACAAATTTTCCTAATCTTTCTGTTCAAGCGCCATCTAC | 1.35 RPM ratio (pull-down/input)
38 | GATGATTGTTCTCCCAGCTGATGAATTCCGACATTCGAGTAAACAAATTTTCCTAATCTTTCTGTTCAAGCGCCATCTAC | 0.846 RPM ratio (pull-down/input)
39 | GATGATTGTTCTCCCAGCTGATGAATTTTTGGGTTCGAGTAAACAAATTTTCCTAATCTTTCTGTTCAAGCGCCATCTAC | 0.898 RPM ratio (pull-down/input)
40 | GATGATTGTTCTCCCAGCTGATGAATTATCGAGTTCGAGTAAACAAATTTTCCTAATCTTTCTGTTCAAGCGCCATCTAC | 0.888 RPM ratio (pull-down/input)
